T1: UNK ZnF1-3 (human, UniProt Q9C0B0 31-174)
T1 sequence: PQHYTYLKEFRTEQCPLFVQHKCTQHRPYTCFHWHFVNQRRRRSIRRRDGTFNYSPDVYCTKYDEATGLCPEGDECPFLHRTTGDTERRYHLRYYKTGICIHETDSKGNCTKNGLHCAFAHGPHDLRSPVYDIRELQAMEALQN

B1: chr18:74380996:74380997:+_ENSMUSG00000024560_ENSMUST00000025444|mus_mus|motif|central (ssRNA)
RNA: GGGAGUUCUACAGUCCGACGAUCGCAGAGACCCUUUGAUAAGGGCAAACGGAAGCCAAAACGUGGAUGGUGAGGAUCAAACGGAGGGCAGCAGAAGAAACAGAUGAAUGGAGGAACGGACAGCUGGCAAUGCAGGGCCUCUCCCAACAGAGGAUUGAGCAUCA
B2: chr14:94519448:94519449:-_ENSG00000089737_ENST00000330836|hu_hu|FALSE|FALSE (ssRNA)
RNA: GGGAGUUCUACAGUCCGACGAUCAGAGUUGUGCAGGCAAGCCUGGAAGUUCCGAUACUCAGAUUUCUCAAUCUGUCGAGCUAAACGGAUUCGCUCCUUGACCACAUCCAUGUAUUUUGUCUGCACGGGGAACAGUGGGAUAUCCAACAGAGGAUUGAGCAUCA
B3: chr2:225400320:225400321:-_ENSG00000036257_ENST00000409096|hu_mus|motif|central (ssRNA)
RNA: GGGAGUUCUACAGUCCGACGAUCAUUUUCUACAUUAUUCUGUUGUACAUAUACACGGUCCAUAUACAUUAAUAUGUCUCGGAUCAUCACCAUGGCUGUUUGAUGAUCAUUCCAAGCUUGAUUUAGUGUUUGAAGAAAGUUGUUCAACAGAGGAUUGAGCAUCA
B4: chr3:8561242:8561243:+_ENSMUSG00000027500_ENSMUST00000029002|mus_mus|FALSE|FALSE (ssRNA)
RNA: GGGAGUUCUACAGUCCGACGAUCAGCAACCAGCUCACAGUCUCCAAGUGGAAAAACGUUCAGUAGCAUUAUGUGCUUGUACUACAGGCAAAAGCUUAAAAUGAACAUCAUCACCCAUGGCACCCACAGAUAAGCCACCCGACACAACAGAGGAUUGAGCAUCA
B5: chr11:30000241:30000242:-_ENSMUSG00000020315_ENSMUST00000011877|mus_mus|FALSE|FALSE (ssRNA)
RNA: GGGAGUUCUACAGUCCGACGAUCUAUUUCCAACACAGCCUCACAAAAUUGAGGAACAGUUUAAAUACUGAGAUCUAAUCUAUAUAAUUUCAUUAAAAAAAUCUGGCCUUCCCUCUGUACCUCAAACUUUUUAAACUUGGAGAUCAACAGAGGAUUGAGCAUCA
B6: chrX:71549400:71549401:+_ENSMUSG00000019087_ENSMUST00000019231|mus_hu|mus_mus_mus_hu_False|8_48 (ssRNA)
RNA: GGGAGUUCUACAGUCCGACGAUCGCAGUAGGAAGAGGGAAGCUCUUCAGUCCAGUGCGCUGCAGGGUGGGAAAGCAACAACACGGAACCAAUACUCCCCUCAACCCCCCCACUGGCACAGGGUCACAUCUGGGUCAUCAAAGACAACAGAGGAUUGAGCAUCA
B7: chr3:148802587:148802588:-_ENSG00000071794_ENST00000310053|hu_mus|hu_hu_hu_mus_False|18_68 (ssRNA)
RNA: GGGAGUUCUACAGUCCGACGAUCUCCAACAACUUGUCCUCUCAUAGUUCCAAAUAAAACCAAAUCUACUUCUUCAUCACUCGUUAGGAAGUCAUCUGGAGGAAUAAUGUCUUGGAAUUCAAAACGUGGCAAGAAAGUUGAGUACAACAGAGGAUUGAGCAUCA
B8: chr7:31307748:31307749:-_ENSMUSG00000036882_ENSMUST00000044338|mus_hu|FALSE|FALSE (ssRNA)
RNA: GGGAGUUCUACAGUCCGACGAUCGUACAAGGACCCUCGGUGGAGCUCGCCCCCCCUUCCGUAGGCUGGCGGGGCUGCCCUGUAGAGCAGGAGAGGCUCAGGAGGGCCCCAGGGACCCGGCACCCUAUGAGGGGUACGGGGUCCCAACAGAGGAUUGAGCAUCA
B9: chr2:61705333:61705334:-_ENSG00000082898_ENST00000401558|hu_hu|motif|central (ssRNA)
RNA: GGGAGUUCUACAGUCCGACGAUCGUUGUCGACAAGCGACAGCACACACACACAAAAACAAAAAGAACUGUGUAAAAAUAACGGACUGUGUUCCCAUAUUUUUGAAGUCGCUUUACAAUGGGAUGAUAUGCACAUGAUCUUGCUCAACAGAGGAUUGAGCAUCA
B10: chr4:76721835:76721836:+_ENSG00000138768_ENST00000264904|hu_mus|hu_hu_hu_mus_True|18_58 (ssRNA)
RNA: GGGAGUUCUACAGUCCGACGAUCGUUUGGCUGGGGUUUCUGAGACGCUCUGGAAUAUAACUCAUGUUUGCUAAUAAUCCUAGUUUCCUCUAUGAAAUUCUCUUUGCCAAUCCUCUUUCAAUCAGUUUGCUUUAGUUUCUCUUUCAACAGAGGAUUGAGCAUCA
B11: chr4:82150701:82150702:-_ENSMUSG00000008575_ENSMUST00000064770|mus_hu|FALSE|FALSE (ssRNA)
RNA: GGGAGUUCUACAGUCCGACGAUCUAAAACGCACUUUCCGGGAGAUGCCCAAGAAAAUCUUCGAGAAGCAAGAAUUUCAUCUAUUCAUUUUACAGUCAUCUGAGCCCCGCGAUGCGAUCAAUCAGGACGGGGCUCUGCGCUGGACAACAGAGGAUUGAGCAUCA
B12: chr5:21408736:21408737:-_ENSMUSG00000042453_ENSMUST00000161356|mus_hu|mus_mus_mus_hu_False|98_108 (ssRNA)
RNA: GGGAGUUCUACAGUCCGACGAUCGUUGACAGCAUUAUAAAUGGUGGCUUCAUGGAACUGGAAAGGGGAGCAGCCAAUGCUGUUAGAAGAGGAAGGAAGGCACUGGGUCUGUACGAGCUGCCAGGAAUCCGAUCUUGCAUCCUUCAACAGAGGAUUGAGCAUCA
B13: chr1:58468927:58468928:-_ENSMUSG00000026034_ENSMUST00000148330|mus_mus|mus_mus_mus_hu_False|38_68 (ssRNA)
RNA: GGGAGUUCUACAGUCCGACGAUCAAUUACUGAAAAAGAUGUUCAUUACCUUAGCUAUGUACUUAAUUUAAUAAAGCACCCAAACAAAAUAAACAUGUUUACAAAUUAAUGUUAAGAAUUUACAAAGCUGUACAAAAUAACUUACAACAGAGGAUUGAGCAUCA
B14: 133831465_133831585_4723_3pUTR_ENSMUSG00000026434_ENSMUST00000062264|mouse|control|control (ssRNA)
RNA: GGGAGUUCUACAGUCCGACGAUCGAUAUUCAGAAUCAUGUAUUCUCUUUUCUAAGACAAAGGGGGAAAAAAAAGGAGGUUCAAAUAGUAACAUGGCUAUUGAUAGCUUGACAUCGCAAUACUCAAAAAACAAAAGGAAAAACUCAACAGAGGAUUGAGCAUCA

The list shows a part of the results.

For the assay, the target named is T1, UNK ZnF1-3. The experiment in a line: nsRBNS (natural sequence RNA bind-n-seq); RBNS binding buffer (assumed for nsRBNS): 25 mM Tris pH 7.5, 150 mM KCl, 3 mM MgCl2, 0.01% Triton X-100, 500 ug/ml BSA, 20 U/ml SUPERase-In, 4 C; UNK is unkempt and MSI1 is Musashi-1; names of the RNAs are library labels; protein concentration not given here; high values mean tight binding.
B1: the binding signal amounted to 1.97 enrichment R.

B2 displayed a binding signal of 0.512 enrichment R.

Molecule B3 yielded a binding signal of 0.493 enrichment R.

B4 returned a binding signal of 1.44 enrichment R.

With B5, the binding signal came out at 2.65 enrichment R.

Molecule B6 yielded a binding signal of 1.33 enrichment R.

In turn, B7 had a binding signal of 1.15 enrichment R.

B8 returned a binding signal of 0.424 enrichment R.

Molecule B9 showed a binding signal of 0.696 enrichment R.

Molecule B10 showed a binding signal of 0.422 enrichment R.

For the molecule B11, the binding signal was 0.967 enrichment R.

In turn, B12 had a binding signal of 1.74 enrichment R.

On to B13, for which the binding signal is 0.991 enrichment R.

For the molecule B14, the binding signal was determined as 1.62 enrichment R.

Source of the values: PMC12136788.
